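How tested: cells in 96-well plates exposed to compound for 48 hours at five concentrations. At the GI50, growth is halved.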 Certain results were filed several times, with different values. The list is limited to them. The source may hold further records. For some assays here: The tests behind the records often covered other concentration ranges, which the source does not state; a value can be the end of its range.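 TGI: concentration producing complete growth inhibition.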 For some assays here: The values listed for one entry repeat one measurement across runs, samples, wells, individuals or studies. What stands in brackets tells the records apart. The letters are not those of the source and start again with each entry. Where a SMILES comes first, the peptide text is derived from it. [ ]: non-standard residue; d: D form. The star is where a group is joined. ξ: configuration not given here. X3 = COC1=CC(=O)N(C(=O)C(O*)C(C)C)C1Cc1ccccc1; ξNMe2Val = CC(C)C(C(=O)*)N(C)C; NMeV = CN[CH](C(=O)O)C(C)C
What was measured:
Assay in all cases: NCI tumour cell line growth inhibition, 48 h
SK-MEL-5 melanoma = tested on: SK-MEL-5 melanoma
SNB-75 CNS = tested on: SNB-75 CNS
SN12C renal = tested on: SN12C renal
KM20L2 colon = tested on: KM20L2 colon
OVCAR-8 ovarian = tested on: OVCAR-8 ovarian
XF 498 CNS = tested on: XF 498 CNS
SK-OV-3 ovarian = tested on: SK-OV-3 ovarian
HCC-2998 colon = tested on: HCC-2998 colon
SK-MEL-2 melanoma = tested on: SK-MEL-2 melanoma
RXF 393 renal = tested on: RXF 393 renal
MOLT-4 leukemia = tested on: MOLT-4 leukemia
HOP-92 NSCLC = tested on: HOP-92 NSCLC
CCRF-CEM leukemia = tested on: CCRF-CEM leukemia
A498 renal = tested on: A498 renal
SF-539 CNS = tested on: SF-539 CNS
SN12K1 renal = tested on: SN12K1 renal
NCI-H226 lung = tested on: NCI-H226 lung
KM12 colon = tested on: KM12 colon
SR leukemia = tested on: SR leukemia
MCF7 breast = tested on: MCF7 breast
SW-620 colon = tested on: SW-620 colon
NCI-H460 lung = tested on: NCI-H460 lung
HCT-15 colon = tested on: HCT-15 colon
SNB-19 CNS = tested on: SNB-19 CNS
OVCAR-4 ovarian = tested on: OVCAR-4 ovarian
OVCAR-3 ovarian = tested on: OVCAR-3 ovarian
HCT-116 colon = tested on: HCT-116 colon
IGROV1 ovarian = tested on: IGROV1 ovarian
UACC-257 melanoma = tested on: UACC-257 melanoma
COLO 205 colon = tested on: COLO 205 colon
HOP-18 NSCLC = tested on: HOP-18 NSCLC
HOP-62 NSCLC = tested on: HOP-62 NSCLC
CAKI-1 renal = tested on: CAKI-1 renal
SNB-78 CNS = tested on: SNB-78 CNS
MALME-3M melanoma = tested on: MALME-3M melanoma
HL-60(TB) leukemia = tested on: HL-60(TB) leukemia
DMS 273 small cell lung = tested on: DMS 273 small cell lung
A549 NSCLC = tested on: A549 NSCLC
P388/ADR leukemia = tested on: P388/ADR leukemia
T-47D breast = tested on: T-47D breast
DLD-1 colon = tested on: DLD-1 colon
OVCAR-5 ovarian = tested on: OVCAR-5 ovarian
EKVX NSCLC = tested on: EKVX NSCLC
UO-31 renal = tested on: UO-31 renal
NCI-H522 lung = tested on: NCI-H522 lung
HT29 colon = tested on: HT29 colon
K-562 leukemia = tested on: K-562 leukemia
U251 CNS = tested on: U251 CNS
SF-268 CNS = tested on: SF-268 CNS
RPMI-8226 leukemia = tested on: RPMI-8226 leukemia
MDA-N = tested on: MDA-N
SK-MEL-28 melanoma = tested on: SK-MEL-28 melanoma
NCI-H23 lung = tested on: NCI-H23 lung
HS 578T breast = tested on: HS 578T breast
UACC-62 melanoma = tested on: UACC-62 melanoma
LOX IMVI melanoma = tested on: LOX IMVI melanoma

COC1=CC(=O)N(C(=O)C(OC(=O)C2CCCN2C(=O)C2CCCN2C(=O)C(C(C)C)N(C)C(=O)C(NC(=O)C(C(C)C)N(C)C)C(C)C)C(C)C)C1Cc1ccccc1 (configuration not stated) (ξNMe2Val-V[NMeV]PP-X3; configuration not given here)
TGI (SK-MEL-5 melanoma): 7.09 nM and 497 nM | TGI (SNB-75 CNS): 8.6 nM and > 4 µM | TGI (SN12C renal): 9.41 nM and > 4 µM | TGI (KM20L2 colon): 7.45 nM and < 0.4 nM | TGI (OVCAR-8 ovarian): 9.27 nM and 229 nM | TGI (XF 498 CNS): 7.85 nM and < 0.4 nM | TGI (SK-OV-3 ovarian): 9.01 nM and 1.76 µM | TGI (HCC-2998 colon): 5.11 nM and 208 nM | TGI (SK-MEL-2 melanoma): 9.74 nM and > 4 µM | TGI (RXF 393 renal): 6.57 nM and > 4 µM | TGI (MOLT-4 leukemia): 8.35 nM and 461 nM | TGI (HOP-92 NSCLC): 6.8 nM and > 4 µM

Cn1cc(-c2cc3c(Nc4ccc(CC(=O)Nc5cc(C(C)(C)C)on5)cc4)ncnc3[nH]2)cn1
TGI (CCRF-CEM leukemia): 14.1 µM [sample A, mean of 2 tests] and 1.12 µM [sample B, mean of 2 tests]

CC[C@@H](C)[C@@H]1NC(=O)C(NC(=O)C(CC(C)C)N(C)C(=O)C2CCCN2C(=O)C(C)O)C(C)OC(=O)C(Cc2ccc(OC)cc2)N(C)C(=O)C2CCCN2C(=O)C(CC(C)C)NC(=O)C(C)C(=O)C(C(C)C)OC(=O)C[C@H]1O (some centres not stated)
TGI (A498 renal): 5.45 nM, 17.9 nM, 97.3 nM | TGI (SF-539 CNS): 0.206, 5.69, 10.1, 25.4 nM | TGI (SN12K1 renal): 0.5 nM, 5.18 nM, 176 nM | TGI (NCI-H226 lung): 6.51 nM, 13.2 nM, 78 nM | TGI (KM12 colon): 0.5, 0.826, 5.24, 30.8, 45.1 nM | TGI (SR leukemia): 2.11 nM, 7.18 nM, 38.7 µM | TGI (MCF7 breast): 0.5 nM, 0.101 nM, 22 nM | TGI (SW-620 colon): 0.5, 6.65, 271, 67.3 nM | TGI (NCI-H460 lung): 0.5, 0.0105, 61.2, 14.4, 161 nM | TGI (HCT-15 colon): 0.5 nM, 51.1 nM, 302 nM, 1.24 µM | TGI (CCRF-CEM leukemia): 0.0542 nM, < 26.1 nM, 89.2 nM | TGI (SNB-19 CNS): 0.5, 0.102, 9.84, 13.3, 25.3 nM | TGI (OVCAR-4 ovarian): 0.5, 0.722, 15.3, 37.1 nM | TGI (OVCAR-3 ovarian): 0.5, 1.16, 83.4, 40.9, 16.9 nM | TGI (HCT-116 colon): 0.5 nM, 0.0115 nM, 3.28 nM [1 test] and 23 nM [mean of 4 tests] and 36.2 nM [mean of 9 tests] | TGI (IGROV1 ovarian): 4.05, 9.82, 54.8, 210 nM | TGI (SK-MEL-5 melanoma): 0.5, 0.187, 0.584, 21.3, 11.6 nM | TGI (UACC-257 melanoma): 0.5, 14.1, 21.9, 103 nM | TGI (SNB-75 CNS): 0.001 nM, 0.0662 nM [1 test] and 0.0794 nM [mean of 2 tests] and 0.687 nM [mean of 4 tests] and 18.7 nM [mean of 5 tests] | TGI (COLO 205 colon): 0.000525 nM, 3.04 nM [1 test] and 12.2 nM [mean of 10 tests] and 0.568 nM [mean of 3 tests] and 214 nM [mean of 5 tests] | TGI (HOP-18 NSCLC): 0.874 nM [mean of 4 tests] and 60.3 nM [mean of 5 tests] and 10.9 nM [mean of 9 tests] | TGI (SN12C renal): 12.1 nM, 18.8 nM, 415 nM | TGI (HOP-62 NSCLC): 1.59, 4.61, 34.2, 15.6 nM | TGI (CAKI-1 renal): 0.5, 74.8, 36.1, 47.9 nM | TGI (SNB-78 CNS): 0.912 nM, 7.08 nM, 22.1 nM | TGI (MALME-3M melanoma): 0.5, 5.69, 5.39, 9.95, 42 nM | TGI (HL-60(TB) leukemia): 0.0776, 2.25, 24.3, 257 nM | TGI (KM20L2 colon): 0.5 nM, 24.7 nM, 203 nM | TGI (DMS 273 small cell lung): 0.5 nM [1 test] and 39.3 nM [mean of 5 tests] | TGI (A549 NSCLC): 0.5, 11.4, 25.6, 187 nM | TGI (P388/ADR leukemia): 0.5 nM, 702 nM, 1.61 µM | TGI (T-47D breast): 8.27 nM and 453 nM | TGI (DLD-1 colon): 0.5, 0.562, 59.7, 315 nM | TGI (OVCAR-5 ovarian): 1.67 nM, 17 nM [1 test] and 414 nM [mean of 5 tests] and 140 nM [mean of 8 tests] | TGI (EKVX NSCLC): 0.5, 0.256, 8.27, 16.4, 46.6 nM | TGI (UO-31 renal): 24.1 nM, 172 nM, 888 nM | TGI (NCI-H522 lung): 0.5 nM, 0.153 nM, 7.51 nM [1 test] and 12.4 nM [mean of 11 tests] and 0.483 nM, < 12.6 nM [mean of 5 tests] | TGI (OVCAR-8 ovarian): 22.2 nM, 16 nM, 721 nM | TGI (HT29 colon): 0.5 nM, 17.9 nM, 36.6 nM | TGI (K-562 leukemia): 0.356, 16.8, 30.5, 674 nM | TGI (U251 CNS): 0.5 nM, 0.0128 nM, 4.04 nM [1 test] and 15.8 nM [mean of 11 tests] and 16 nM [mean of 5 tests] | TGI (SF-268 CNS): 5.96, 16.8, 40, 51.9 nM | TGI (RPMI-8226 leukemia): 0.0169, 34.3, 70.7, 296 nM | TGI (MDA-N): 6.68 nM and 87.6 nM | TGI (XF 498 CNS): 0.00974 nM, 6.56 nM, < 20.9 nM | TGI (SK-OV-3 ovarian): 10.3 nM [1 test] and 28.9 nM [mean of 11 tests] and 213 nM [mean of 5 tests] | TGI (SK-MEL-28 melanoma): 6.73 nM [1 test] and 13.3 nM [mean of 11 tests] and 0.308 nM [mean of 4 tests] and 30.1 nM [mean of 5 tests] | TGI (NCI-H23 lung): 0.5, 11.8, 50.5, 32.2 nM | TGI (SK-MEL-2 melanoma): 0.5, 0.381, 5.82, 14.3, 34.2 nM | GI50 (HS 578T breast): 0.423 nM [1 test] and 12.7 nM [mean of 4 tests] | TGI (HS 578T breast): 3.41 nM [1 test] and 35.9 nM [mean of 4 tests] | TGI (UACC-62 melanoma): 0.5 nM, 0.252 nM, 5.55 nM, 9.7 nM, < 11.9 nM | TGI (HOP-92 NSCLC): 0.5, 7.45, 21.5, 5.77, 40.2 nM | TGI (LOX IMVI melanoma): 0.5, 5.46, 21.7, 113 nM

C=C1CC2CC[C@@]34C[C@@H]5O[C@@H]6C(O[C@H]7CC[C@H](CC(=O)OC8[C@@H](C)C9OC%10C[C@]%11(C[C@@H]%12O[C@@]%13(C[C@@H](C)[C@@H]%12O%11)C[C@H](C)[C@@H]%11OC%12CC(C(O)CO)OC%12C[C@@H]%11O%13)OC%10CC9O[C@H]8C[C@H]8O[C@@H](CC[C@@H]1O2)C[C@@H](C)C8=C)O[C@@H]7[C@@H]6O3)C5O4 (some centres not stated)
TGI (NCI-H226 lung): 6.06 nM and 0.447 nM | TGI (KM12 colon): 9.57 nM and 330 nM | TGI (HCT-15 colon): 2.95 nM and > 1.48 µM | TGI (CCRF-CEM leukemia): 7.91 nM and > 1.48 µM | TGI (COLO 205 colon): 5 nM and < 0.148 nM | TGI (HOP-62 NSCLC): 5.37 nM and > 1.48 µM | TGI (HL-60(TB) leukemia): 1.43 nM and > 1.48 µM | TGI (KM20L2 colon): 1.77 nM and < 0.148 nM | TGI (XF 498 CNS): 4.98 nM and < 0.148 nM | TGI (SK-OV-3 ovarian): 7.92 nM and > 1.48 µM

Source: PubChem BioAssay (NCI)
